Measurements reported in PMC5700166.
Only a part is listed here, and it is no random draw. The list includes weakly bound sequences.

Columns and labels:
Assay in all cases: protein-binding microarray (PBM)
Conditions in all cases: PBM: ~300 nM protein, 6 mM HEPES pH 7.8, 80 mM KCl, 0.5 mM EDTA, 0.5 mM EGTA, 6% glycerol, 35 ng/ul poly-dIdC, 1% milk, 1 h, room temperature; Ap Aiptasia and Nv Nematostella (sea anemones) / Co Capsaspora / Aq Amphimedon (sponge) / Dm Drosophila / Hu human; RHD is the Rel homology domain; high values mean tight binding; most listed sequences are background and not binding sites; double strand, one strand shown
[1] = target: T1, GST-Ap-NF-kB RHD (UniProt A0A913YAJ5)
T1 sequence: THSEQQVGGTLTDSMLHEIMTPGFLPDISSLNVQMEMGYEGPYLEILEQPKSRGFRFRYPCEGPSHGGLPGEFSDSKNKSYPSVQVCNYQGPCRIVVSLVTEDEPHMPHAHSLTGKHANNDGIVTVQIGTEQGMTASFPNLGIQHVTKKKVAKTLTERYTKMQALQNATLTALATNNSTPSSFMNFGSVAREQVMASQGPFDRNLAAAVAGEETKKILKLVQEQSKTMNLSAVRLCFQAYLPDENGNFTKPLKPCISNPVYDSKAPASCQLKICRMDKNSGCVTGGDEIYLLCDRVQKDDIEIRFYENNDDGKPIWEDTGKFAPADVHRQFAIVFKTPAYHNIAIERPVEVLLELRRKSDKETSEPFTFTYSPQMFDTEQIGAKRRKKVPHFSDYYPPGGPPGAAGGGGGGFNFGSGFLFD

[2] = target: T2, GST-Nv-NF-kB (Cys allele) (UniProt E5G601)
T2 sequence: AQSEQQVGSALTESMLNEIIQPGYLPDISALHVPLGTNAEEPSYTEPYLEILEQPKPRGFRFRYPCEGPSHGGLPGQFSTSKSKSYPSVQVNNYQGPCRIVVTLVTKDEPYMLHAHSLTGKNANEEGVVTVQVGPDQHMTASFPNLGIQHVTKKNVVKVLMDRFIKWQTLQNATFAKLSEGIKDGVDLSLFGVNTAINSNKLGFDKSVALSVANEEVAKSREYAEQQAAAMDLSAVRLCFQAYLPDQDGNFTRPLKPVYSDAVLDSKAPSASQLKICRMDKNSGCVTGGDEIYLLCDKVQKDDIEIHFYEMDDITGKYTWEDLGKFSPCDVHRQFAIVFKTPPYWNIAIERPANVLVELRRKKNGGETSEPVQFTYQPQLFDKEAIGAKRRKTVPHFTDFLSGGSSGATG

[3] = target: T3, GST-Co-NF-kB (UniProt F1ARL5)
T3 sequence: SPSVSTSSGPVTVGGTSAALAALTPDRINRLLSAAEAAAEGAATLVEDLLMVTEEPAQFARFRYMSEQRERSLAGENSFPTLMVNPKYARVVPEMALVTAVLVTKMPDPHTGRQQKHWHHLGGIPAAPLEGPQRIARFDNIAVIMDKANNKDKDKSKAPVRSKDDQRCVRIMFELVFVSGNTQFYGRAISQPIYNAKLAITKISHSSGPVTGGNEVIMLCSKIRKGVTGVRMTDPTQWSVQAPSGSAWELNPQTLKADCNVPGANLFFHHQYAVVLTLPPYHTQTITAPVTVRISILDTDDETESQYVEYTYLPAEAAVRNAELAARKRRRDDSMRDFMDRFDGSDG

[4] = target: T4, GST-Dm-Relish (UniProt Q94527)
T4 sequence: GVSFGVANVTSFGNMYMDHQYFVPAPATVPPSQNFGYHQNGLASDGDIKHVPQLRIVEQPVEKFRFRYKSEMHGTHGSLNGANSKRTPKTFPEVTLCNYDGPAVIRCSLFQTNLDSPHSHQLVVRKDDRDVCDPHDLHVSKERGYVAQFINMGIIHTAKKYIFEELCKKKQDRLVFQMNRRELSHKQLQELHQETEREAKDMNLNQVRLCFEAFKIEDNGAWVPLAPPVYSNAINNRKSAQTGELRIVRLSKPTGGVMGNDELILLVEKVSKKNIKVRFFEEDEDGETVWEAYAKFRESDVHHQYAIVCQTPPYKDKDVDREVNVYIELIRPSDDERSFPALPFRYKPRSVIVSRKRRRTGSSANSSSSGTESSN

[5] = target: T5, GST-Aq-NF-kB (UniProt A9Y5G7)
T5 sequence: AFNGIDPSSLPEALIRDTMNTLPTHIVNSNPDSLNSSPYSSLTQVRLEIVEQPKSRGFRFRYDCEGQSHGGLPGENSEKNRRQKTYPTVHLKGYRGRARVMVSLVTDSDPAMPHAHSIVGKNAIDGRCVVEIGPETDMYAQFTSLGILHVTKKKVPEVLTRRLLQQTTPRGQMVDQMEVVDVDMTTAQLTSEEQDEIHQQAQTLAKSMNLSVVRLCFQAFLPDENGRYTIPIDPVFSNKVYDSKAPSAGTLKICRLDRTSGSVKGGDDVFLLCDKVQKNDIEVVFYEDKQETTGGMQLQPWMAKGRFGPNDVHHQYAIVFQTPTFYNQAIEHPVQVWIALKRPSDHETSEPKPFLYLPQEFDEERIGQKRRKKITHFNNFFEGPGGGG

CCGATTAACATCATCGGTTAGTGTGATGTTAATCGGGTCTTGATTCGCTTGACGCTGCTG
binding signal [1]: 0.149 z-score | binding signal [2]: -1.01 z-score | binding signal [3]: 0.244 z-score | binding signal [4]: 0.612 z-score | binding signal [5]: -0.489 z-score

CCGATTAACATCAGAGTGCGAACTGATGTTAATCGGGTCTTGATTCGCTTGACGCTGCTG
binding signal [1]: -0.609 z-score | binding signal [2]: -0.208 z-score | binding signal [3]: -1.12 z-score | binding signal [4]: -0.735 z-score | binding signal [5]: -0.571 z-score

CCGATTAACATCACAACGGAATGTGATGTTAATCGGGTCTTGATTCGCTTGACGCTGCTG
binding signal [1]: -0.459 z-score | binding signal [2]: 0.635 z-score | binding signal [3]: 0.00554 z-score | binding signal [4]: 1.37 z-score | binding signal [5]: -0.201 z-score

CCGATTAACATCACGGAGTTTCCTGATGTTAATCGGGTCTTGATTCGCTTGACGCTGCTG
binding signal [1]: 0.0444 z-score | binding signal [2]: -0.223 z-score | binding signal [3]: 0.491 z-score | binding signal [4]: 0.581 z-score | binding signal [5]: 3.34 z-score

CCGATTAACATCAGTGCAGAACCTGATGTTAATCGGGTCTTGATTCGCTTGACGCTGCTG
binding signal [1]: -0.165 z-score | binding signal [2]: -0.337 z-score | binding signal [3]: -0.855 z-score | binding signal [4]: -0.121 z-score | binding signal [5]: -0.266 z-score

CCGATTAACATCAACGTTTCTGTTGATGTTAATCGGGTCTTGATTCGCTTGACGCTGCTG
binding signal [1]: -0.855 z-score | binding signal [2]: -0.253 z-score | binding signal [3]: -0.312 z-score | binding signal [4]: -0.331 z-score | binding signal [5]: -0.56 z-score

CCGATTAACATCATTCGTACGCATGATGTTAATCGGGTCTTGATTCGCTTGACGCTGCTG
binding signal [1]: -1.17 z-score | binding signal [2]: -0.439 z-score | binding signal [3]: -1.75 z-score | binding signal [4]: -0.606 z-score | binding signal [5]: -0.671 z-score

CCGATTAACATCAACTCTAAGACTGATGTTAATCGGGTCTTGATTCGCTTGACGCTGCTG
binding signal [1]: -0.603 z-score | binding signal [2]: -0.207 z-score | binding signal [3]: -0.47 z-score | binding signal [4]: -0.712 z-score | binding signal [5]: -0.762 z-score

CCGATTAACATCAGGAATTTGCCTGATGTTAATCGGGTCTTGATTCGCTTGACGCTGCTG
binding signal [1]: -0.935 z-score | binding signal [2]: -0.447 z-score | binding signal [3]: -0.617 z-score | binding signal [4]: 0.169 z-score | binding signal [5]: 0.224 z-score

CCGATTAACATCAAGCCGGCAATTGATGTTAATCGGGTCTTGATTCGCTTGACGCTGCTG
binding signal [1]: -0.203 z-score | binding signal [2]: 0.257 z-score | binding signal [3]: -1.07 z-score | binding signal [4]: -0.985 z-score | binding signal [5]: -0.746 z-score

CCGATTAACATCAGACATCTGATTGATGTTAATCGGGTCTTGATTCGCTTGACGCTGCTG
binding signal [1]: -0.229 z-score | binding signal [2]: -0.959 z-score | binding signal [3]: -0.848 z-score | binding signal [4]: -0.856 z-score | binding signal [5]: -0.575 z-score

CCGATTAACATCAAGGAATTCCATGATGTTAATCGGGTCTTGATTCGCTTGACGCTGCTG
binding signal [1]: 0.382 z-score | binding signal [2]: -0.0831 z-score | binding signal [3]: 0.125 z-score | binding signal [4]: 2.32 z-score | binding signal [5]: 1.54 z-score

CCGATTAACATCAGATTTGTCGTTGATGTTAATCGGGTCTTGATTCGCTTGACGCTGCTG
binding signal [1]: -0.528 z-score | binding signal [2]: -0.591 z-score | binding signal [3]: -0.192 z-score | binding signal [4]: -0.999 z-score | binding signal [5]: -0.365 z-score

CCGATTAACATCAATCACCAGGATGATGTTAATCGGGTCTTGATTCGCTTGACGCTGCTG
binding signal [1]: 0.189 z-score | binding signal [2]: -0.18 z-score | binding signal [3]: -0.184 z-score | binding signal [4]: -0.0218 z-score | binding signal [5]: -0.463 z-score

CCGATTAACATCAGAACTACTTCTGATGTTAATCGGGTCTTGATTCGCTTGACGCTGCTG
binding signal [1]: -0.822 z-score | binding signal [2]: -0.118 z-score | binding signal [3]: -0.459 z-score | binding signal [4]: -0.0419 z-score | binding signal [5]: -0.65 z-score

CCGATTAACATCATAGACATGACTGATGTTAATCGGGTCTTGATTCGCTTGACGCTGCTG
binding signal [1]: -0.599 z-score | binding signal [2]: -0.163 z-score | binding signal [3]: -0.674 z-score | binding signal [4]: -0.801 z-score | binding signal [5]: -0.466 z-score

CCGATTAACATCATTCCGGAAAATGATGTTAATCGGGTCTTGATTCGCTTGACGCTGCTG
binding signal [1]: 0.0281 z-score | binding signal [2]: 0.694 z-score | binding signal [3]: -0.832 z-score | binding signal [4]: -0.154 z-score | binding signal [5]: 0.636 z-score

CCGATTAACATCATTTCTGCTCGTGATGTTAATCGGGTCTTGATTCGCTTGACGCTGCTG
binding signal [1]: -0.603 z-score | binding signal [2]: -0.684 z-score | binding signal [3]: -0.0119 z-score | binding signal [4]: 0.306 z-score | binding signal [5]: -0.511 z-score

CCGATTAACATCAGACTGCTAGGTGATGTTAATCGGGTCTTGATTCGCTTGACGCTGCTG
binding signal [1]: 0.0376 z-score | binding signal [2]: -0.219 z-score | binding signal [3]: -0.181 z-score | binding signal [4]: -0.0236 z-score | binding signal [5]: 0.184 z-score

CCGATTAACATCAGTAAAACGATTGATGTTAATCGGGTCTTGATTCGCTTGACGCTGCTG
binding signal [1]: -0.581 z-score | binding signal [2]: -0.559 z-score | binding signal [3]: -0.265 z-score | binding signal [4]: -0.133 z-score | binding signal [5]: -0.364 z-score

CCGATTAACATCAAAATCAGCTTTGATGTTAATCGGGTCTTGATTCGCTTGACGCTGCTG
binding signal [1]: -0.876 z-score | binding signal [2]: -0.134 z-score | binding signal [3]: 0.182 z-score | binding signal [4]: -0.537 z-score | binding signal [5]: -0.522 z-score

CCGATTAACATCAACGGTGGAAATGATGTTAATCGGGTCTTGATTCGCTTGACGCTGCTG
binding signal [1]: 0.826 z-score | binding signal [2]: -0.229 z-score | binding signal [3]: 0.075 z-score | binding signal [4]: -0.3 z-score | binding signal [5]: 0.383 z-score

CCGATTAACATCACAACTCACATTGATGTTAATCGGGTCTTGATTCGCTTGACGCTGCTG
binding signal [1]: -0.164 z-score | binding signal [2]: -0.576 z-score | binding signal [3]: 0.296 z-score | binding signal [4]: 0.0886 z-score | binding signal [5]: -0.331 z-score

CCGATTAACATCATAATCTATCATGATGTTAATCGGGTCTTGATTCGCTTGACGCTGCTG
binding signal [1]: -1.05 z-score | binding signal [2]: -0.446 z-score | binding signal [3]: -1.07 z-score | binding signal [4]: -0.691 z-score | binding signal [5]: -0.397 z-score

CCGATTAACATCATCGGAATTCGTGATGTTAATCGGGTCTTGATTCGCTTGACGCTGCTG
binding signal [1]: -0.236 z-score | binding signal [2]: -0.719 z-score | binding signal [3]: -0.368 z-score | binding signal [4]: -0.0593 z-score | binding signal [5]: -0.301 z-score
